Test results as given in the supplement of paper PMC12067230.
This is a noisy data set.

Test: amyloid nucleation score relative to library mode (yeast Sup35 reporter selection) (log enrichment difference); higher = more amyloid nucleation; sequences are the first 22 residues of the Bri2 peptide extended by up to 12 random residues
Settings: random library (experiment): 1;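 active = nucleation score significantly above 0 at FDR 0.05; inactive = not significantly above 0 or absent from output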
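Also: [psi-pin-] Saccharomyces cerevisiae expressing SupN fusions, induced by 100 µM Cu2SO4, selected 7 d at 30 °C without adenine and uracil, scored by deep sequencing of output versus input.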

Sequence | amyloid nucleation score
EASNCFAIRHFENKFAVETLICDAVPRP | inactive
EASNCFAIRHFENKFAVETLICRVDRSCKWSCDW | 3.16
EASNCFAIRHFENKFAVETLICAQMVLRLLVPML | inactive
EASNCFAIRHFENKFAVETLICVCILRC | 4.15
EASNCFAIRHFENKFAVETLICVAYVWRSAGLGT | 0.04
EASNCFAIRHFENKFAVETLICKRQNGPLGVTWL | inactive
EASNCFAIRHFENKFAVETLICVHFTLCFNEYGL | 3.92
EASNCFAIRHFENKFAVETLICCRLNHVREQDR | 1.81
EASNCFAIRHFENKFAVETLICCQWGVKNCLCPF | 7.08
EASNCFAIRHFENKFAVETLICGHGNLQLAAWFW | 1.47
EASNCFAIRHFENKFAVETLICPVAHVVRMLRDR | inactive

Same assay, conditions: random library (experiment): 2

Sequence | amyloid nucleation score
EASNCFAIRHFENKFAVETLICIYGYHFRDRLVF | 0.494
EASNCFAIRHFENKFAVETLICDNGHALSYNWND | inactive
EASNCFAIRHFENKFAVETLICFLPNCLQSNVSR | 8.87
EASNCFAIRHFENKFAVETLICVQM | 7.22
EASNCFAIRHFENKFAVETLICYMLTILPRSPSN | inactive
EASNCFAIRHFENKFAVETLICLVYGNFFRCSMV | inactive
EASNCFAIRHFENKFAVETLICLHPR | 1.93
EASNCFAIRHFENKFAVETLICRKKLCNCVGGIL | inactive
EASNCFAIRHFENKFAVETLICVSAI | inactive
EASNCFAIRHFENKFAVETLICVRLYSTLCYSHV | inactive
EASNCFAIRHFENKFAVETLICRYTSCQPTPLEF | 0.598
EASNCFAIRHFENKFAVETLICTFTKNKFSNHWM | 3.4
EASNCFAIRHFENKFAVETLICTGRYYVWRGYSS | inactive
EASNCFAIRHFENKFAVETLICFGDGSW | 8.27
EASNCFAIRHFENKFAVETLICVGTEKD | 1.22
EASNCFAIRHFENKFAVETLICYRRKNIVRRIG | inactive
EASNCFAIRHFENKFAVETLICYCMAVNVLYGIL | inactive
EASNCFAIRHFENKFAVETLICGCNRMTILSLAL | inactive

Same assay, conditions: random library (experiment): 3

Sequence | amyloid nucleation score
EASNCFAIRHFENKFAVETLICTSKPVPATSEGS | inactive
EASNCFAIRHFENKFAVETLICVKEQQV | inactive
EASNCFAIRHFENKFAVETLICILV | inactive
EASNCFAIRHFENKFAVETLICPVYVGETYSWLE | inactive
EASNCFAIRHFENKFAVETLICHTLLYIRYFIVR | -0.225
EASNCFAIRHFENKFAVETLICPLGGVGYNEYGS | inactive
EASNCFAIRHFENKFAVETLICLLSNYCQLRLRP | inactive
EASNCFAIRHFENKFAVETLICTFLV | 6.58
EASNCFAIRHFENKFAVETLICADVVCHGLAIPR | 4.12
EASNCFAIRHFENKFAVETLICPPWSGAREVARS | 0.104
EASNCFAIRHFENKFAVETLICVDCIAYAQAMGR | 2.55
EASNCFAIRHFENKFAVETLICCYAGT | 7.63
EASNCFAIRHFENKFAVETLICMRQSRRCWTPVW | inactive
EASNCFAIRHFENKFAVETLICYGPYSVTAKAGA | inactive
EASNCFAIRHFENKFAVETLICEYVQRVENQFSG | 5.36
EASNCFAIRHFENKFAVETLICLHGVEADRCLEW | inactive
EASNCFAIRHFENKFAVETLICTNVGCAPPGLRW | 8.46
EASNCFAIRHFENKFAVETLICMSASEQGGKLSE | -0.378
EASNCFAIRHFENKFAVETLICYNAGVRPVPFGR | inactive
